Test results taken from PubChem BioAssay AID651820 (National Center for Advancing Translational Sciences (NCATS), 2012).
Screen size: about 340,000 compounds; about 12,000 (3.5%) were called active. The inconclusive results got no clear call from the source; some entries with a clear call stand among them for comparison. Calls follow the shape of the dose curve; as a rule, active = well fitted inhibition curve with a large enough effect; inconclusive = small, poorly fitted or top-dose-only effect, or another doubt; inactive = no such curve, though single readings can be large or run the other way. No potency is given beside an inconclusive call; the fits are too rough.

assay: qHTS Assay for Inhibitors of Hepatitis C Virus (HCV); conditions: Huh7.5.1 HCVcc-Cre (HCVcc is cell-culture hepatitis C virus) infection, luciferase reporter, 44 h; activity change, negative = inhibition: at 41.8 µM (top of the series) unless noted
Summary of the method: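 Compounds are dispensed onto cells plated 4 h earlier at 1,000 per well, with HCVcc-Cre virus (about 0.5 moi) added next. Following 44 h of culture, luminescent signal is measured for 15 sec after 15 min with substrate at room temperature.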
% is scaled to controls: 0 for no effect and ±100 for the full control effect; potency is read from the fitted curve at half-maximal effect; tags tell the direction and shape of the fitted curve.

SMILES	activity change, negative = inhibition	Potency
Cc1sc(NC(=O)/C=C/c2ccc(C(C)C)cc2)c(C#N)c1C	inactive: -28.4%	
OCCCNCc1ccc(N(c2ccccc2)c2ccccc2)cc1		inconclusive [inhibitor, partial curve]
CSc1nc2ccc(NC(=O)c3cccs3)cc2s1		inconclusive [inhibitor, single point]
CC(C)c1ccc(COC(=O)CN2C(=O)NC3(CCCCC3C)C2=O)cc1 (centres undefined)		active: 14.1 µM
COc1cc(C[C@@H]2C(=O)OC[C@H]2Cc2ccc(OC)c(OC)c2)ccc1O		inconclusive [inhibitor, full curve, poor fit]
OC1(c2ccc(OC(F)F)cc2)CSC(=Nc2cccnc2)N1C1CC1 (centres undefined)		active: 31.6 µM
O=C(c1cnn2c(C(F)F)cc(C3CC3)nc12)N1CCCC1		inconclusive [inhibitor, single point]
CCn1cc(C(=O)N[C@@H](CCSC)C(=O)NCCCOC)c(=O)c2cc3c(cc21)OCO3	inactive: -11.1%	
COc1ccc2[nH]c3c(NCCN(C(C)C)C(C)C)ncnc3c2c1		inconclusive [inhibitor, full curve, poor fit]
COc1ccc(-c2cc(C(N)=O)nc(N3CCCCCC3)n2)cc1	inactive: -7.48%	
CCC(C)(C)C1CCC2(CC1)NC(=O)N(CC(=O)N(C)CCOc1ccc(Cl)cc1)C2=O (centres undefined)		inconclusive [inhibitor, partial curve]
COc1ccc(C(CNc2ncnc3sc(C)c(C)c23)N(C)C)cc1 (centres undefined)		inconclusive [inhibitor, full curve]
COc1ccc(/C=C/C(=O)Nc2cccc(C(C)=O)c2)cc1		inconclusive [inhibitor, full curve]
Cc1c(NC(=O)OCCNC(=O)COc2ccc(Cl)cc2Cl)sc(=S)n1C		inconclusive [inhibitor, single point]
O=C(O)C1CCN(C(=O)COc2ccc3c(c2)oc(=O)c2ccccc23)CC1		inconclusive [inhibitor, partial curve, poor fit]
O=C(COC(=O)CSc1ccc2ccccc2c1)NCc1ccc2c(c1)OCO2		inconclusive [inhibitor, partial curve]
CC(C)NCCOCCOc1ccc(Cl)cc1Br		inconclusive [inhibitor, single point]
OC[C@@H](O)[C@H](O)C(/C=N/Nc1ccccc1)=N\Nc1ccccc1		inconclusive [inhibitor, single point]
Cc1ccccc1OCc1nc2c3c(ncn2n1)-c1ccccc1CC31CCCC1		inconclusive [inhibitor, partial curve]
